Laboratory results taken from PubChem BioAssay AID588453 (National Center for Advancing Translational Sciences (NCATS), 2011).
Among all 390,000 compounds or so, about 4,000 (1%) were called active. Inconclusive results, whose numbers are uncertain, are shown with a selection of clear calls. The call rests on the fitted dose curve; in most records, active means well fitted inhibition curve with a large enough effect; inconclusive means small, poorly fitted or top-dose-only effect; inactive means no such curve, though single readings can be large or run the other way. Potencies of inconclusive entries are doubtful fits and often do not repeat.

biological target: Thioredoxin reductase 1, cytoplasmic (Rattus norvegicus) (UniProt O89049); test: qHTS Assay for Inhibitors of Mammalian Selenoprotein Thioredoxin Reductase 1 (TrxR1): qHTS; conditions: recombinant rTrxR1, NADPH fluorescence consumption, selenite substrate; series mostly up to 114 µM; activity change, negative = inhibition: at the top concentration; further: nearly all actives have a fitted effect of over 65% in size
UniProt O89049, sequence (O89049 whole entry, looked up): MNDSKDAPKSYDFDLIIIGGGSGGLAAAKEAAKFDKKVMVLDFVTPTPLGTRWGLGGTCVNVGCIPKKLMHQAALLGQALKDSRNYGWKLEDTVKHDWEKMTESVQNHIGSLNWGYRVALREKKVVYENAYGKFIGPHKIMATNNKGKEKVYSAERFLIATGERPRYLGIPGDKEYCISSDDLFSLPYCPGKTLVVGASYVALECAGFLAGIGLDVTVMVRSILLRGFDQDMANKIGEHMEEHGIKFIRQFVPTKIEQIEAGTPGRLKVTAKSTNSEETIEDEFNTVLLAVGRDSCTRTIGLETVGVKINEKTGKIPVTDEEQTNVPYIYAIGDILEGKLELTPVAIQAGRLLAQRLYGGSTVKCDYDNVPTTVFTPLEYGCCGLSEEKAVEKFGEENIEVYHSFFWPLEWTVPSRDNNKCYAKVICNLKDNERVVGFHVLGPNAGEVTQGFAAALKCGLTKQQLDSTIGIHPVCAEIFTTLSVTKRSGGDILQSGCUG
Method in brief: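 Rat TrxR1 (90 nM in the dispensed reagent) was pre-reduced with 400 uM NADPH for 5 min at room temperature, then incubated with compound for 15 min. After 400 uM selenite was added, NADPH fluorescence (Ex 340/Em 450 nm) was followed for 8 min.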
On the % scale 0 is the no-effect control and ±100 the full control effect; potency means the concentration at half of the fitted maximal effect; tags describe the fitted curve by direction and shape.

`CCc1ccc(NC(=O)C(=O)N/N=C(\C)CC(=O)NCc2ccc(Cl)cc2)cc1` was tested. Which Potency did it give?
The Potency was inconclusive: 89.1 µM [inhibitor, single point].

Which Potency does the source give for `CCN(CC)/C(Sc1ccccc1)=C(/C(Cl)=C(Cl)Cl)[N+](=O)[O-]` here?
Its Potency is inconclusive: 35.5 µM [inhibitor, partial curve].

With `CCCCN1CC(=O)N2[C@@H]3c4cc(OC)ccc4OC[C@@H]3[C@H](C(=O)OCC)[C@]2(C)C1=O` as the compound, how does the Potency read?
Its Potency is inconclusive: 89.1 µM [inhibitor, single point].

For `CCc1ccccc1NC(=O)NNC(=O)CCc1ccc(OC)cc1`, which “activity change, negative = inhibition” value is on record?
Its value is inactive: 34.7%.

With `CCOC(=O)c1n[nH]n2c1nc(=S)c1ccccc12` as the compound, how does the Potency read?
Its Potency is inconclusive: 50.1 µM [inhibitor, partial curve, poor fit].

For `Cc1ccc(NC(=O)C2CCN(S(=O)(=O)c3cc([N+](=O)[O-])ccc3Cl)CC2)nc1`, which Potency is on record?
Its Potency is inconclusive: 14.1 µM [inhibitor, partial curve, poor fit].

How did the Potency turn out when `Cc1cc(O)c(C(C)C)cc1N=Cc1ccc(N(C)C)cc1` was run?
Its Potency is inconclusive: 79.4 µM [inhibitor, single point].

For `NC(CSC1(c2ccccc2)c2ccccc2-c2ccccc21)C(=O)O` (stereo not drawn), which Potency is on record?
Its Potency is inconclusive: 3.16 µM [inhibitor, single point].

How did the Potency turn out when `CC[n+]1c(/C=C/C=C/N(C(C)=O)c2ccccc2)sc2ccccc21` was run?
Its Potency is inconclusive: 70.8 µM [inhibitor, partial curve].

With `O=C(CCSc1nc(-c2ccco2)cc(C(F)(F)F)n1)NCc1ccccn1` as the compound, how does the Potency read?
Its Potency is inconclusive: 56.2 µM [inhibitor, single point].

`O=C(CN1C(=O)COc2ccc(S(=O)(=O)NC3CCCC3)cc21)Nc1ccc(Cl)cc1F` was tested. Which “activity change, negative = inhibition” value did it give?
Its value is inactive: 6.04%.

`Cc1nn2c(-c3ccco3)nnc2c2ccccc12` was tested. Which Potency did it give?
Its Potency is active: 79.4 µM.

For `O=C(Nc1cccc(F)c1)N(Cc1ccc(Cl)cc1)CC(O)C(F)(F)F` (stereo not drawn), which “activity change, negative = inhibition” value is on record?
Its value is inactive: 8.19% [at 57.1 µM].

How did the “activity change, negative = inhibition” value turn out when `CCCC[n+]1ccn(-c2nc3ccccc3nc2[N-]S(=O)(=O)c2ccc(Cl)cc2)c1` was run?
Its value is inactive: 4.6% [at 57.1 µM].

How did the Potency turn out when `O=Nc1ccc(NOC(=O)c2ccccc2)cc1` was run?
The Potency was inconclusive: 44.7 µM [inhibitor, partial curve].

Which Potency does the source give for `S=c1nc(-c2ccccc2)n(CCN2CCOCC2)c2c1CCCC2` here?
The Potency was inconclusive: 39.8 µM [inhibitor, single point].

For `COc1ccc(C(CC(=O)c2ccc(C)cc2)C(C#N)C#N)cc1OC` (stereo not drawn), which Potency is on record?
Its Potency is inconclusive: 8.91 µM [inhibitor, partial curve].

`O=C(/C=C/c1ccc(F)cc1)NC(=S)NNC(=O)c1cccnc1` was tested. Which Potency did it give?
Its Potency is inconclusive: 28.2 µM [inhibitor, single point].
